Reference: publication PMC6919601, “Identification of Plasmodium dipeptidyl aminopeptidase allosteric inhibitors by high throughput screening” (PLoS ONE, 2019)
Among all 110,000 compounds or so, about 230 (0.21%) showed an effect of 50% or more. The list shows a part of the results.

What follows are compounds tested against DPAP1 (Plasmodium falciparum, UniProt Q8IIJ9) (assay: primary screen, percent inhibition; read by cleavage of a fluorogenic dipeptide substrate; higher = more effect of the substance).
Chain of DPAP1 (Q8IIJ9 whole entry, looked up): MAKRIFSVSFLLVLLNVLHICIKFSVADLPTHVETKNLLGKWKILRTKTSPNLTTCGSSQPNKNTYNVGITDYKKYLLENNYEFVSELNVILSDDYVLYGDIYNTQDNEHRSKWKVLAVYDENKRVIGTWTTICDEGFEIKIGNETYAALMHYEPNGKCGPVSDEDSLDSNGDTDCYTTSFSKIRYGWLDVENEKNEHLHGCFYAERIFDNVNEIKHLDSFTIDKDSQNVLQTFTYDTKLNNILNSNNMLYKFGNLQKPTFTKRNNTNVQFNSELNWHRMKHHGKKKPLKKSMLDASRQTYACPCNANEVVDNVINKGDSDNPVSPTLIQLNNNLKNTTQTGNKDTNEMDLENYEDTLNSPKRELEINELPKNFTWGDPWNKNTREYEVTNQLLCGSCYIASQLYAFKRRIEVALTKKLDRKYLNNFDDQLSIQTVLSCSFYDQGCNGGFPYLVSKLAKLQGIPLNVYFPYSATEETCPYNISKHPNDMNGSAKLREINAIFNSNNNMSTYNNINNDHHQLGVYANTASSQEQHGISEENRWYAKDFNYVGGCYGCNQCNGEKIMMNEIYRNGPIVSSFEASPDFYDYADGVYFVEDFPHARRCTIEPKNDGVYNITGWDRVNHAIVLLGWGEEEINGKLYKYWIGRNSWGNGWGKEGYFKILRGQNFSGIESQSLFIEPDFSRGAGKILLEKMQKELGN
Parameters: species or system P. falciparum D10 trophozoite lysates; single well
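Further: 30 min substrate incubation versus DMSO and 10 µM JCP410 controls.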

Row | Structure (SMILES) | % Inhibition @ 10 uM [%]
1 | CCOc1ccc2oc(=O)cc(CN3CCN(C4CCCCC4)CC3)c2c1 | 0.00706
2 | Cc1cc(C)n(-c2ccc3cccc(N)c3n2)n1 | 1.57
3 | CCN1CCN(C(=O)c2cnn(-c3ccccc3Cl)c2NC(=O)c2ccco2)CC1 | -4.86
4 | CCCc1nnc2nc(O)cc(C)n12 | -5.33
5 | CC1CCN(S(=O)(=O)c2ccc(Cl)c(Cl)c2)CC1 | -0.414
6 | CS(=O)(=O)n1cnc2ccccc21 | -2.99
7 | CC1=CC(C)C2C(=O)N(c3ccccc3)C(=O)C2C1 (stereo not shown) | 5.37
8 | O=C(NCCN1CCCCCC1)C1CCC(CNS(=O)(=O)c2cccc3nsnc23)CC1 (stereo not shown) | -0.465
9 | C1=C(c2cccnc2)Nc2ncnn2C1c1cccs1 (stereo not shown) | -3.21
10 | Cc1ccc(CC(=O)Nc2nnc(CC(C)C)s2)cc1 | -1.17
11 | CC[C@H](NC(=O)[C@H](CN(C)c1ccccc1)NC(=O)c1ccc(-c2ccccc2Cl)cc1)C(=O)c1nc2ccccc2o1 | -6.98
12 | CN(C)S(=O)(=O)n1cc(/C=C(\NC(=O)c2ccccc2)C(=O)NCc2ccco2)c2ccccc21 | -0.0235
13 | Oc1oc2ccccc2c2nc(-c3ccccc3)nc1-2 | 2.47
14 | OCCN1CCN(c2ncnc3c2c(-c2ccccc2)cn3-c2ccc(F)cc2)CC1 | -0.928
15 | Cc1ccc(NC(=O)CN2C(=O)S/C(=C\c3cccc(Cl)c3)C2=O)cc1 | -6.24
16 | Cc1nn(CC(=O)N2CCN(C)CC2)c(=O)c2cccn12 | -10.8
17 | COc1ccccc1C(=O)Nc1cc(Cl)ccc1C(F)(F)F | 3.67
18 | FC(F)(F)c1cccc(N2CCN(Cc3ccc(Cl)cc3Cl)CC2)c1 | -3.65
19 | Cc1ccc(NC(=O)CN2C(=O)c3ccccc3S2(=O)=O)cc1 | 1.03
20 | CCCNC(=O)CN(Cc1ccccc1C)S(=O)(=O)c1ccc(Cl)cc1 | -1.95
21 | Cc1ccc(CC/N=c2/c(-c3ccccc3)c(O)c2=O)cc1 | 0.867
22 | COc1ccc(CCNC(=O)CCNS(=O)(=O)c2cccc3nonc23)cc1OC | -2.04

Row | Structure (SMILES) | % Inhibition @ 10 uM [%]
23 | Cc1ccccc1S(=O)Cc1ccc(C(=O)NC2CC2)o1 (stereo not shown) | -3.61
24 | O=C(CSc1nc2ccccc2c(=O)n1-c1ccccc1)NCCCN1CCOCC1 | -10.8
25 | Cc1ccc(C(=O)NCc2ccncc2)c(Cl)c1 | -0.473
26 | CS(=O)(=O)N(CC(=O)NCc1ccccc1Cl)c1ccc(Cl)cc1 | -0.231
27 | N#CC1=C(N)Oc2cc(O)ccc2C1c1ccc(OCc2ccccc2Cl)cc1 (stereo not shown) | -1.17
28 | O=C(CC(c1ccccc1)c1ccccc1O)N1CCOCC1 (stereo not shown) | 0.47
29 | N#Cc1c(NC(=O)c2ccc(C(=O)O)cc2C(=O)O)sc2c1CCCC2 | 2.95
30 | Cc1nn(CCCC(=O)N2CCOCC2)c(=O)c2c1sc1ccccc12 | -1.97
31 | O=C(Cn1cnc2c(nnn2Cc2ccccc2F)c1=O)NCc1ccccc1 | -0.431
32 | O=C(c1ccco1)n1nc(-c2ccc(Cl)cc2)nc1NCc1ccco1 | 2.31
33 | COCCNC(=O)CSc1nc2ccccc2c(=O)n1-c1ccccc1 | -1.27
34 | O=C(COc1ccc(Cl)cc1)NC12CC3CC(CC(C3)C1)C2 | -1.96
35 | Cc1ccc(CNC(=O)c2cc(S(=O)(=O)N3CCOCC3)cn2C)o1 | -6.98
36 | O=C1CCN(Cc2ccccc2)C(=O)N1 | 2.09
37 | CCc1cc2cccnc2n1S(=O)(=O)c1ccccc1 | -5.11
38 | C=CCOc1ccc(CNc2nccs2)cc1 | -11.5
39 | CCOc1ccc2nc(NC(=O)C(NS(=O)(=O)c3cccs3)C(C)C)sc2c1 (stereo not shown) | -11.7
40 | O=C(O)C1C(C(=O)Nc2ccccc2F)C2C=CC1C21CC1 (stereo not shown) | 2.92
41 | O=C(CN(Cc1ccccc1)S(=O)(=O)c1ccccc1)Nc1ccccc1C(F)(F)F | -2.63
42 | N#Cc1ccc(-c2ccc(COCCCC(O)CO)cc2)cc1 (stereo not shown) | 1.03
43 | Cc1c(NC(=O)NC2CCCCC2C)sc2nc3n(c(=O)c12)CCC(C)CC3 (stereo not shown) | 1.68
44 | CC(C)C[C@H](NC(=O)c1ccc(-c2ccc(C#N)s2)cc1)C(=O)NCC#N | 1.71

Row | Structure (SMILES) | % Inhibition @ 10 uM [%]
45 | CC1CCc2c(sc(NC(=O)C3CCCC3)c2C(N)=O)C1 (stereo not shown) | 17.5
46 | O=C1CCCN1c1ccc(S(=O)(=O)N2CCOCC2)cc1 | -8.11
47 | Cc1cc(C)cc(-n2c(C)cc(C=C3C(=O)NC(=O)NC3=O)c2C)c1 | 10.7
48 | COc1ccc(C2=NS(=O)(=O)N(C)C(C(=O)N3CCOCC3)=C2)cc1OC | -8.82
49 | CC(O)C#CCN1C(C)CCCC1C (stereo not shown) | 2.58
50 | O=C(N/C(=C\c1cccnc1)C(=O)N1CCOCC1)c1cccc(Br)c1 | -5.79
51 | COCCO/C(O)=C1\C(C)=NC2=C(C(=O)CC(C)(C)C2)C1c1ccc(Cl)c(Cl)c1 (stereo not shown) | -1.85
52 | CC(C)(C)c1ccc(C(=O)Nc2cccnc2)cc1 | -4.33
53 | Cc1ccc(S(N)(=O)=O)cc1NC(=O)Nc1ccccc1 | 0.727
54 | COc1ccc(NC(=O)C2CCN(C(=O)c3ccccc3C)CC2)cc1OC | -2.29
55 | CCCNC(=O)C(C)Sc1nc2nc(C)cc(C)n2n1 (stereo not shown) | 2.79
56 | COC(=O)c1ccc(C)c(S(=O)(=O)N2CCCCC2)c1 | -3.44
57 | COc1ccc2c(c1)c(/C=C/c1nc3ccccc3c(=O)n1C)c(C)n2C | -3.37
58 | Cc1cc(NC(=O)c2cc(-c3ccccc3F)no2)nn1CC(=O)N1CCCCC1C (stereo not shown) | 0.807
59 | COCCCN1C(=S)NC2c3cc(Br)ccc3OC1(C)C2C (stereo not shown) | -2.1
60 | Cc1cc(C)c(S(=O)(=O)N2CCCC2)cc1S(=O)(=O)N1CCCC1 | 0.827
61 | CCOC(=O)c1c(C)c(-c2ccccc2)n(CC(=O)Nc2cc(C)ccn2)c1C | 0.0579
62 | COc1ccc(-c2occ(C(=O)O)c2C(=O)O)cc1 | 10.8
63 | COc1ccc(-c2c(C)oc3c(CN4CCCCC4C)c(O)ccc3c2=O)cc1OC (stereo not shown) | 5.31
64 | CC1CC(Nc2ccccc2)c2ccccc2N1C(=O)C(C)(C)C (stereo not shown) | -10.5
